Data on 44 sequences can be found in the supplement of paper PMC11417369.

± gives the standard deviation of the averaged measurements. The list shows a part of the results.

For the experiment, the system named is PfAP2-LT AP2 domain (GST-tagged). The experiment in a line: gcPBM binding intensity (ln(normalized median fluorescence intensity)); higher = stronger DNA binding. The method, boiled down:
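Plasmodium falciparum DNA-binding domains carrying a GST tag were expressed in E. coli and applied for 1 h, at about 25 μg on average, to an Agilent 4 × 180k array. The array held primer-extended double-stranded 36-bp intergenic genomic probes together with negative controls, and binding took place in 1× PBS with 1% milk, 0.2 mg/ml BSA, 0.5% salmon testes DNA and 0.03% Triton X-100. An Alexa488 anti-GST antibody detected bound protein, and the array was scanned at 488 nm. Binding intensity is taken as the highest Masliner-normalised natural-log median intensity across replicate spots of either probe orientation.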
For the sequence “AAGGACACCTTCAAAACACACATACAAATAAATAGA [CACACA_site5771]”, the “gcPBM binding intensity (ln)” value amounted to 9.13 ± 0.57. For “AAAATTAAATTATAAGCACACACATATATATATATA [CACACA_site9105]” the value was 9.41 ± 0.23. To “TACATACCTATATACACATGCATATTTACATATATT [TGCATGCA_site206]” belongs 9.19 ± 0.35. Regarding “TACATACAGATATATACACACATATATAATATATAT [CACACA_site4376]”, the “gcPBM binding intensity (ln)” value was 9.21 ± 0.42. To GTAAAAATACAAAAGGTGCTCAAACAATATAATACA belongs 9.03 ± 0.47; to “AATGGATTGATAAGTGGTACACACATATATATTATA [XGTACX_site6086]”, 9.07 ± 0.27; to “GAATATTAAACAAACACACACACATATATTTATATA [CACACA_site7563]”, 9.73 ± 0.27. For “TATATAATATATATGACACACATATTTATATAAATA [CACACA_site4054]” the value was 8.81 ± 0.4; for “TTGATATGTACAGGCACACATAAATTTCACAAATAT [CACACA_site3999]”, 9.16 ± 0.4. For “CGTATTATTTTATAAACACACAAGGGGGCATGTATA [CACACA_site6489]” the value was 9.475 ± 0.0071.

As for “CTTTAGTTTTTAATGTGTACTGAATTTGAATAGTAG [XGTACX_site7920]”, the “gcPBM binding intensity (ln)” value was found to be 8.59 ± 0.4. To “ATATAATTAAAAACATGTACATATATATATATATAT [XGTACX_site2882]” belongs 9.62 ± 0.085; to “CATAAATGTATATAAACATGCAAGGACAGACTTTTA [TGCATGCA_site900]”, 8.92 ± 0.37; to “TAAGTCGTTATAAGCACACACATAAATAAAAATAAA [CACACA_site1574]”, 9.12 ± 0.3. For “AAGGGTTATAAAAATTGTACTTTTTTTATTTTTTTT [XGTACX_site1313]” the value was 8.6 ± 0.49; for “TCAATTTTTTAATGTTGTACTTTGTAAAAAAAAATA [XGTACX_site8481]”, 8.17 ± 0.41; for “ATATATTTATATAGGTGTACATATTTTGCTATTCAA [XGTACX_site5199]”, 8.75 ± 0.38.

“ATACCAAATGAATAATGTACATACGAACATACATAT [XGTACX_site1301]”: the “gcPBM binding intensity (ln)” value was found to be 9.1 ± 0.37.

In the case of “GTACATTGTAAGGATGGAAAAGCTAAACATTATAAT [XGTACX_negctrl_site339]”, the “gcPBM binding intensity (ln)” value came out at 8.9 ± 0.33. For “ATATTTTTAACCAAGGACACAATTCTTGTATTGTTA [CACACA_negctrl_site1326]”, the “gcPBM binding intensity (ln)” value was found to be 8.59 ± 0.5. For “AAAAGATTAAGTAGAATAATGTTCTTTCCCAACATA [GTGCAC_negctrl_site223]” the value was 8.38 ± 0.45; for “CATTTAGAATAAGGCACACATAAAGAACACTTTCCA [CACACA_site130]”, 8.87 ± 0.45.

Take “TTATCTTAATTGTGATTATAAAGATATTCTTTCTAT [GTGCAC_negctrl_site410]”: the “gcPBM binding intensity (ln)” value was found to be 8.4 ± 0.57. Turning to “CAACCTCATAATATTTAACACACAAAATTATATGTA [CACACA_site8496]”, the “gcPBM binding intensity (ln)” value worked out at 8.85 ± 0.35. For “ATATATACATATATATGTACGTATATTTTTATTTCT [XGTACX_site6198]” the value was 9.07 ± 0.42; for “TATAAACCCACCTACACACACAACGTAAATGCATTG [CACACA_site2238]”, 9.65 ± 0.28. For “ATTTAACAACTTCAAACACACAATATAGATTTATAT [CACACA_site7067]” the value was 8.73 ± 0.4. For “AACATACACATATACACACACACATATATACATATA [CACACA_site1093]” the value was 9.89 ± 0.23; for “AAAAAAAAAAAAACATGTACATAAATGTAAAAAAGT [XGTACX_site8158]”, 9.52 ± 0.54. As for “GCTTTTGAAAATATACACATGTTAGGAATACAGGGG [TGCATGCA_negctrl_site480]”, the “gcPBM binding intensity (ln)” value is 9.36 ± 0.26.

Turning to TATAATAACAATTTAGTGCATATAATAATATTTTAT, the “gcPBM binding intensity (ln)” value worked out at 8.55 ± 0.44. For the sequence “ACATATAAAATGTATACACACAAATATTACAGAGAT [CACACA_site4920]”, the “gcPBM binding intensity (ln)” value was determined as 9.29 ± 0.41. To “ATTTTTTTTCTTTTTTTTTTACATTTTTTTCTTTTT [CACACA_negctrl_site1289]” belongs 8.78 ± 0.48. Turning to “GCCATTAATTTATACACACACATTATGATTTTTTAT [CACACA_site754]”, the “gcPBM binding intensity (ln)” value stood at 9.29 ± 0.36.

With “CCTGAACACATACATACACACACACTAATAAAAAAA [CACACA_site8023]”, the “gcPBM binding intensity (ln)” value was determined as 9.69 ± 0.46. Regarding “ATGCATATGTTTATTGCACACACCAAAAAGAAAACA [CACACA_site403]”, the “gcPBM binding intensity (ln)” value is 9.35 ± 0.33. For “TACAAACTATGATGCACACATATATATATGTATACA [CACACA_site1226]”, the “gcPBM binding intensity (ln)” value stood at 9.15 ± 0.3.

With “AATTTAAACAAGGATCCACACACCCCAAAAAAAAAA [CACACA_site8125]”, the “gcPBM binding intensity (ln)” value came to 9.55 ± 0.23. “AATAATTAAAATTATCTACACACCTTTATAAATATA [CACACA_site9300]”: the “gcPBM binding intensity (ln)” value was found to be 8.56 ± 0.47. To “TAAATTTAGAAACACACACACATATATATATATATA [CACACA_site847]” belongs 9.995 ± 0.0071; to “TTTATATTATTTTAAACATGCACAAGTATAATTTAT [TGCATGCA_site233]”, 8.43 ± 0.4; to “TTTTCATATGAACAATGTACACATCGTATAATTCTG [XGTACX_site4756]”, 8.83 ± 0.48. For “TGAACAGACGAGCACACACACACATATATATATATA [CACACA_site1019]” the value was 10.3 ± 0.2; for “CTCATAAAAATAACGTTAACATAAATTTATTGTGAT [XGTACX_negctrl_site169]”, 8.81 ± 0.37.
